What all share (assay): glycan array binding signal (z-score within array); higher = stronger binding
Conditions in all cases: glycan notation: IUPAC condensed, linker removed

Assay [1] has as its target GlcNAc(b1-2)Gal(b1-3)GalNAc. The essentials:
(§1)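 Columns mapping to the same glycan were averaged after glycan names were converted to IUPAC-condensed notation. The data come from 3228 arrays in the Consortium for Functional Glycomics database, limited to those with an available protein sequence. Binding is reported as a within-array Z-score averaged across arrays of one protein sequence and across linkers.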

The target in assay [2] is GlcNAc(b1-2)Man(a1-3)[GlcNAc(b1-2)Man(a1-6)]Man(b1-4)GlcNAc(b1-4)GlcNAc. The essentials: as §1
The target of assay [3] is GlcNAc(b1-2)Man(a1-3)[GlcNAc(b1-2)Man(a1-6)]Man(b1-4)GlcNAc(b1-4)[Fuc(a1-6)]GlcNAc. The essentials:
as §1

Assay [4] concerns the target GlcNAc(b1-2)Man(a1-3)[GlcNAc(b1-4)][GlcNAc(b1-2)Man(a1-6)]Man(b1-4)GlcNAc(b1-4)GlcNAc. The essentials:
as §1

The target of assay [5] is GlcNAc(b1-2)Man(a1-3)[GlcNAc(b1-4)][GlcNAc(b1-2)Man(a1-6)]Man(b1-4)GlcNAc(b1-4)[Fuc(a1-6)]GlcNAc. The essentials: as §1
In assay [6] the target is GlcNAc(b1-2)[GlcNAc(b1-4)]Man(a1-3)[GlcNAc(b1-2)Man(a1-6)]Man(b1-4)GlcNAc(b1-4)GlcNAc. The essentials:
as §1

The target of assay [7] is GlcNAc(b1-2)[GlcNAc(b1-4)]Man(a1-3)[GlcNAc(b1-4)][GlcNAc(b1-2)Man(a1-6)]Man(b1-4)GlcNAc(b1-4)GlcNAc. The essentials:
as §1

For assay [8], the target named is GlcNAc(b1-2)[GlcNAc(b1-4)]Man(a1-3)[GlcNAc(b1-4)][GlcNAc(b1-2)[GlcNAc(b1-6)]Man(a1-6)]Man(b1-4)GlcNAc(b1-4)GlcNAc. The essentials:
as §1

The target in assay [9] is GlcNAc(b1-2)[GlcNAc(b1-4)]Man(a1-3)[GlcNAc(b1-4)][GlcNAc(b1-2)[GlcNAc(b1-6)]Man(a1-6)]Man(b1-4)GlcNAc(b1-4)[Fuc(a1-6)]GlcNAc. The essentials: as §1
The target of assay [10] is GlcNAc(b1-2)[GlcNAc(b1-6)]Man(a1-6)[GlcNAc(b1-2)Man(a1-3)]Man(b1-4)GlcNAc(b1-4)GlcNAc. The essentials: as §1
In assay [11] the target is GlcNAc(b1-2)[GlcNAc(b1-6)]Man(a1-6)[GlcNAc(b1-2)Man(a1-3)]Man(b1-4)GlcNAc(b1-4)[Fuc(a1-6)]GlcNAc. The essentials: as §1
Assay [12] concerns the target GlcNAc(b1-2)[GlcNAc(b1-6)]Man(a1-6)[GlcNAc(b1-4)][GlcNAc(b1-2)Man(a1-3)]Man(b1-4)GlcNAc(b1-4)GlcNAc. The essentials: as §1
The target of a further assay is GlcNAc(b1-3)Fuc. The essentials:
as §1

For a further assay, the target named is GlcNAc(b1-3)Gal. The essentials:
as §1

In assay [13] the target is GlcNAc(b1-3)Gal(b1-3)GalNAc. The essentials:
as §1

Another assay concerns the target GlcNAc(b1-3)Gal(b1-4)Glc. The essentials: as §1
Assay [14] concerns the target GlcNAc(b1-3)Gal(b1-4)GlcNAc. The essentials: as §1
Assay [15] addresses GlcNAc(b1-3)Gal(b1-4)GlcNAc(b1-2)Man(a1-3)[GlcNAc(b1-3)Gal(b1-4)GlcNAc(b1-2)Man(a1-6)]Man(b1-4)GlcNAc(b1-4)GlcNAc. The essentials: as §1
The target in assay [16] is GlcNAc(b1-3)Gal(b1-4)GlcNAc(b1-2)Man(a1-3)[GlcNAc(b1-3)Gal(b1-4)GlcNAc(b1-2)Man(a1-6)]Man(b1-4)GlcNAc(b1-4)[Fuc(a1-6)]GlcNAc. The essentials:
as §1

In assay [17] the target is GlcNAc(b1-3)Gal(b1-4)GlcNAc(b1-2)[GlcNAc(b1-3)Gal(b1-4)GlcNAc(b1-6)]Man(a1-6)[GlcNAc(b1-3)Gal(b1-4)GlcNAc(b1-2)Man(a1-3)]Man(b1-4)GlcNAc(b1-4)GlcNAc. The essentials:
as §1

Assay [18] concerns the target GlcNAc(b1-3)Gal(b1-4)GlcNAc(b1-3)Gal(b1-4)GlcNAc. The essentials:
as §1

The target of assay [19] is GlcNAc(b1-3)Gal(b1-4)GlcNAc(b1-3)Gal(b1-4)GlcNAc(b1-2)Man(a1-3)[GlcNAc(b1-3)Gal(b1-4)GlcNAc(b1-3)Gal(b1-4)GlcNAc(b1-2)Man(a1-6)]Man(b1-4)GlcNAc(b1-4)GlcNAc. The essentials: as §1

This is one part of the list.

Results on 1 molecule are retold here after the supplement of paper PMC8728848.

B1: GS13455A-bfa-343-25-343 (Bacteroides fragilis) (protein)
chain: KDEIQIVDQDTSWQMDNKYIEEDIREQLGIDPFTDLVYLGYYGNPYTQLEAINDLVNTTLVGKNELSFKVKVTKPYKEDIKVNLMKEDKLVTDFPEMAEGIPLFPSENCTFEGGVLKAGELETTVKLTLKDVEKLNNLSGYVMAIKLTMEGSHEHLAIARTRSSYFVKLNLSIRLDNIDSSNKKIEGKGFNKEISFKSDIRPDKLGSLNDGNFTANNWYTSNANNYLTIILPEKQSLKGFRLDTNTSPSGSYMLKSCRVMVETPDGNWVNHGVFDRKSMDGIAYISFKKPVECTKVRFENMMAFNGRFSVDVNEVTAFR
Turning to B1, the “glycan array binding signal (z-score)” value in assay [1] was -0.219; in assay [2], 0.077; in assay [3], -0.409; in [4] it was 0.295; in assay [5] it was -0.366; in assay [6] it was -0.39. Also, the “glycan array binding signal (z-score)” value in assay [7] is -0.496; in assay [8], -0.233; in assay [9], 0.855; in assay [10], -0.513; in assay [11], 0.286; in assay [12], -0.262. Besides, the “glycan array binding signal (z-score)” value was -0.449 with GlcNAc(b1-3)Fuc; 0.339 in the assay with GlcNAc(b1-3)Gal; -0.381 in assay [13]; 0.295 with GlcNAc(b1-3)Gal(b1-4)Glc; 0.36 in [14]; 0.549 in assay [15]. Moreover, the “glycan array binding signal (z-score)” value is 0.601 in assay [16], -0.6 in assay [17], -0.86 in [18] and 0.769 in [19].
